# According to paper PMC4081100:
# Only a part is listed here, and it is no random draw. For part of these data: At the low end of the ranking the order means little. The list shows a part of the results. For part of these data: The source does not settle which construct or isoform was used.
# Key:
# Test in all cases: universal protein binding microarray (PBM)
# Details in all cases: transcription factors of Arabidopsis thaliana; high values mean tight binding; most listed sequences are background and not binding sites; double strand, one strand shown
# [1] = biological target: T1, GST-ANAC092(1-176) (UniProt Q9FKA0)
# T1 sequence: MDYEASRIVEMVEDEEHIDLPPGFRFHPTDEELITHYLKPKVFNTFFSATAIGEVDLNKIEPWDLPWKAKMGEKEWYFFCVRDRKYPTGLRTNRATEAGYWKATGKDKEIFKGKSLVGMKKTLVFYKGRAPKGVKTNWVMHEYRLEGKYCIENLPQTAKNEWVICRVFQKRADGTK
# [2] = biological target: GST-NTL6(1-168) (UniProt Q9SCK6)
# [3] = biological target: T2, GST-ANAC019 NAC domain (UniProt Q9C932)
# T2 sequence: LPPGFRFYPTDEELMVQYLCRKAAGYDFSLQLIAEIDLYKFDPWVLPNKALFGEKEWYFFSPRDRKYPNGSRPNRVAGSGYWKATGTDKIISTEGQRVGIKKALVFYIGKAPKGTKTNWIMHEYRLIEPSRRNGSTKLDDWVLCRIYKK
# [4] = biological target: T3, GST-ANAC055(1-171) (UniProt Q9LDY8)
# T3 sequence: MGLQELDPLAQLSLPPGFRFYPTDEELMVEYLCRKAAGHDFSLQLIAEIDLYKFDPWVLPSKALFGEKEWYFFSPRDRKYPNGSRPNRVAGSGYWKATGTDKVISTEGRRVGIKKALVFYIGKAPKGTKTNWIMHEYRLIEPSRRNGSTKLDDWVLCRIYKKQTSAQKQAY
# [5] = biological target: T4, GST-ATAF1 NAC domain (UniProt Q39013)
# T4 sequence: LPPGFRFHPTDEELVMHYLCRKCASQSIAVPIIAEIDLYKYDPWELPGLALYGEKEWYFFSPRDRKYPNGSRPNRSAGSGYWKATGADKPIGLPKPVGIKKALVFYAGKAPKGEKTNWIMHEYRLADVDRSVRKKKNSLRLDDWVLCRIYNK
# [6] = biological target: T5, GST-ANAC092(1-285) full length (UniProt Q9FKA0)
# T5 sequence: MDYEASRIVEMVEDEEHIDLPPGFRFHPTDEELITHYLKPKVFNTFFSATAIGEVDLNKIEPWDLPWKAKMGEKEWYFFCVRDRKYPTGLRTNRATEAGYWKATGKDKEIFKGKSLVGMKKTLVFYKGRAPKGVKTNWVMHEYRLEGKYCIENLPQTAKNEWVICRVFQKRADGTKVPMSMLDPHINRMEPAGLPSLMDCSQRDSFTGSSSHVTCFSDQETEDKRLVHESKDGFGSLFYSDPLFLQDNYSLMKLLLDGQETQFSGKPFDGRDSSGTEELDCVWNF
# [7] = biological target: T6, GST-NAP(1-166) (UniProt O49255)
# T6 sequence: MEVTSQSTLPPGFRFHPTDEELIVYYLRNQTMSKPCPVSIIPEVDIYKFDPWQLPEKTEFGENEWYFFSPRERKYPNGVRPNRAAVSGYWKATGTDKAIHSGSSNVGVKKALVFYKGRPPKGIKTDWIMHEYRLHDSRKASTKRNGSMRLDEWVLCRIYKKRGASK
# [8] = biological target: T7, GST-NST2(1-184) (UniProt Q9M274)
# T7 sequence: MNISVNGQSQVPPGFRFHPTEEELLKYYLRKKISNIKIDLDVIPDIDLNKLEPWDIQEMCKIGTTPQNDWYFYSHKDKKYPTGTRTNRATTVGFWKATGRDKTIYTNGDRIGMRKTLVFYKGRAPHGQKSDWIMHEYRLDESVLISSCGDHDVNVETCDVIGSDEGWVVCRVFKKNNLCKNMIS
# [9] = biological target: T8, GST-NTL8 NAC domain (UniProt Q9XIN7)
# T8 sequence: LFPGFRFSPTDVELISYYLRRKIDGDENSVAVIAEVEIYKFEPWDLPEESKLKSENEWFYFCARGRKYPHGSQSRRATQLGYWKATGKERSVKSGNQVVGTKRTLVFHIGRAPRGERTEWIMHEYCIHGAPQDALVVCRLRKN
# [10] = biological target: T9, GST-SND1(1-203) (UniProt Q9LPI7)
# T9 sequence: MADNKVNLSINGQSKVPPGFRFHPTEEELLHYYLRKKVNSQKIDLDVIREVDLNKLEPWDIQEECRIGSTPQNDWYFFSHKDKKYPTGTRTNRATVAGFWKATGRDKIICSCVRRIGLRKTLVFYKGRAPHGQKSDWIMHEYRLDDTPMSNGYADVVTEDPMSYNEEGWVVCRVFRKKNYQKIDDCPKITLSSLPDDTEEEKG
# [11] = biological target: T10, GST-VND3 NAC domain (UniProt Q9FH59)
# T10 sequence: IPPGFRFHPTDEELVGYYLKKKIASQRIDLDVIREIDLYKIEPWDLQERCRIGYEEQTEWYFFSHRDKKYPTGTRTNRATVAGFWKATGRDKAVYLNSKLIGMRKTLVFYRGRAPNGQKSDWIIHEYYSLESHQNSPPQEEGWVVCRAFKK
# [12] = biological target: T11, GST-VND7 NAC domain (UniProt Q9C8W9)
# T11 sequence: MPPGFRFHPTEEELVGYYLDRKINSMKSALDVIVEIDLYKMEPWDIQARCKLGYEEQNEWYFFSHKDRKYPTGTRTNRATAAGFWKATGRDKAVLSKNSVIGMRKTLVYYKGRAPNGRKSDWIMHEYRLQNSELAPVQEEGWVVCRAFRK
# [13] = biological target: T12, GST-VOZ2 (Arabidopsis thaliana) (UniProt Q9SLB9)
# T12 sequence: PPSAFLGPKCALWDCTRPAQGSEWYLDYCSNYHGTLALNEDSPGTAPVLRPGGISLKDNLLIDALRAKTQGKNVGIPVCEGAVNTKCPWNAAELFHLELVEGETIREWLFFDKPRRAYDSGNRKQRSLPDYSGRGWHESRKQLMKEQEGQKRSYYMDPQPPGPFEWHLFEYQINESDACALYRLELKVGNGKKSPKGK
# [14] = biological target: GST-WRKY1(266-371) (UniProt Q9SI37)
# UniProt Q9SI37, sequence (Q9SI37 266-371, chain 1 of 2): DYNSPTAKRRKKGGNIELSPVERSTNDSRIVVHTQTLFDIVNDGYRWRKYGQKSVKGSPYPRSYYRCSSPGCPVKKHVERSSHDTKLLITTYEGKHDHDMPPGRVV
# UniProt Q9SCK6, sequence (Q9SCK6 1-168): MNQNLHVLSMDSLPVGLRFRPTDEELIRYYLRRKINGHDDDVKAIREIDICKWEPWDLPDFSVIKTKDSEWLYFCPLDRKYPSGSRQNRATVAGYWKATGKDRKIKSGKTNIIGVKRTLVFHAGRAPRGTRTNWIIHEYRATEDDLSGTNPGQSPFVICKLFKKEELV
Sequence,binding signal [1] [E-score],binding signal [2] [E-score],binding signal [3] [E-score],binding signal [4] [E-score],binding signal [5] [E-score],binding signal [6] [E-score],binding signal [7] [E-score],binding signal [8] [E-score],binding signal [9] [E-score],binding signal [10] [E-score],binding signal [11] [E-score],binding signal [12] [E-score],binding signal [13] [E-score],binding signal [14] [E-score]
CAGTCAGC,0.0122,-0.174,-0.0407,-0.111,-0.095,-0.117,-0.112,-0.0963,-0.115,-0.101,-0.148,-0.129,-0.0599,0.406
GCTGGTCA,-0.119,-0.154,0.029,-0.0602,-0.11,-0.121,-0.19,-0.0573,-0.0139,-0.0978,-0.144,-0.00385,-0.0284,0.452
CTGACCGA,-0.198,-0.224,-0.0026,-0.222,-0.232,-0.152,-0.186,-0.196,-0.144,-0.19,-0.121,-0.109,-0.178,0.439
AGGGGTCA,-0.114,0.0129,-0.094,-0.17,-0.188,-0.00792,-0.0564,-0.191,0.0266,-0.042,-0.0713,-0.188,0.0777,0.415
TCTGGTCA,-0.198,-0.0982,-0.159,-0.125,-0.0175,-0.039,0.0115,-0.1,-0.0395,-0.0361,0.059,-0.0283,-0.0449,0.455
ATCTTGAC,-0.0906,-0.134,-0.0223,-0.0711,0.0474,0.0308,0.0459,-0.0278,-0.0884,-0.0185,-0.0267,-0.0446,-0.113,0.47
